Out of some 310,000 compounds screened, about 2,200 (0.71%) showed an effect of 50% or more. Effects have a minus sign here. The list shows a part of the results.
Molecular target: human ether-à-go-go-related gene (hERG) potassium channel (human, UniProt Q12809)
Assay: primary screen, population patch clamp on CHO cells stably expressing hERG

human ether-à-go-go-related gene (hERG) potassium channel, sequence (Q12809 whole entry, looked up): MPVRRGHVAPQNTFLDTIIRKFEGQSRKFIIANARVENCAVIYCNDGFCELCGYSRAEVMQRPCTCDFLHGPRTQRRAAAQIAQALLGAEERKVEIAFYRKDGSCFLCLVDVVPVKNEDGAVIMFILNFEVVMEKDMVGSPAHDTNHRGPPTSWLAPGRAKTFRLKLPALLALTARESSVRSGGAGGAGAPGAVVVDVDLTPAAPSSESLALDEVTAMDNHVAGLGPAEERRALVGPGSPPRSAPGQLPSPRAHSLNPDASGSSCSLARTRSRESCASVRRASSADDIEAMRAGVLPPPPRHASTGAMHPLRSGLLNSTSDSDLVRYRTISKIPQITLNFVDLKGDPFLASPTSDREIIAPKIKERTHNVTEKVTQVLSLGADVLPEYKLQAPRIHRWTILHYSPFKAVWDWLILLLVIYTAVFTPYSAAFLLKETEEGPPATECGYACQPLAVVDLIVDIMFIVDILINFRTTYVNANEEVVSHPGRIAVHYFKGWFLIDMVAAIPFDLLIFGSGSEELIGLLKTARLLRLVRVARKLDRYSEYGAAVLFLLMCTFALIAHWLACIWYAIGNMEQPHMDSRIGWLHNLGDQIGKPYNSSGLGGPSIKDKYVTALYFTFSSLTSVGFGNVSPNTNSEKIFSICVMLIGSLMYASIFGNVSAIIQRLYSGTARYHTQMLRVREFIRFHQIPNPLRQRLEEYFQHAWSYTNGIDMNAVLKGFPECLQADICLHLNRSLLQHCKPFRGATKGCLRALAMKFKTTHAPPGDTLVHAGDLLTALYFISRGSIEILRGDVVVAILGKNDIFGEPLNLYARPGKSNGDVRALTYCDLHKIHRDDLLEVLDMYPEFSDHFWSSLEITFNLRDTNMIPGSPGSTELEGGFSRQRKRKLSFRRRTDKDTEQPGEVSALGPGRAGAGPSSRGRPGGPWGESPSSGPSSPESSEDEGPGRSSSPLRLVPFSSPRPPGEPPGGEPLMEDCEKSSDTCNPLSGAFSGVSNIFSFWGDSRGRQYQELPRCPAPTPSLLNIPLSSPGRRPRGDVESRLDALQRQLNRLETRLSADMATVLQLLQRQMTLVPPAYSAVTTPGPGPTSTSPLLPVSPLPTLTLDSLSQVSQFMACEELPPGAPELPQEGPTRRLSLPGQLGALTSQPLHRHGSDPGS

Structure (SMILES)	hERG current change (%, negative = inhibition) at 1uM [%]
COc1cccc(C(=O)NC2CC(C)(C)Cc3c2cnn3-c2cccc(F)c2)c1OC (stereo not drawn)	-2.37
COc1ccc(N2C(=O)C3C(C2=O)C3(c2ccccc2)c2ccccc2)cc1 (stereo not drawn)	12
Cc1ccc(C(=O)Nc2nc(-c3ccccn3)cs2)o1	-1.17
O=C(COC(=O)CNC(=O)c1ccccc1F)NCCC1=CCCCC1	14.7
COc1ccc(C2SCC(C(=O)NCc3ccc(F)cc3)N2C(C)=O)cc1 (stereo not drawn)	-2.31
Cc1ccn(-c2ccc([N+](=O)[O-])cc2)n1	12.7
O=C(Nc1ccc2c(c1)CCCN2C(=O)c1cccs1)c1cccc(F)c1	11.8
COc1cc([N+](=O)[O-])ccc1NC(=O)NCc1cccnc1	-1.89
CC1(C)CC(=O)/C(=C(\O)CCCN2C(=O)c3ccccc3C2=O)C(=NCC(=O)O)C1	8.81
O=C(Cn1cc(S(=O)(=O)Cc2cccc(F)c2)c2ccccc21)N1CCOCC1	7.18
O=C(COc1ccc2c(c1)OCO2)NC12CC3CC(CC(C3)C1)C2	4.39
CCOC(=O)Cn1cc(/C=C/[N+](=O)[O-])c2ccccc21	11.9
O=C(c1cc(-c2ccc(O)cc2)on1)N1CCOCC1	3.69
CCCCNC(=O)CC1N=C2c3ccccc3N=C(SCC(=O)Nc3ccc(OC)cc3)N2C1=O (stereo not drawn)	6.61
O=C(C1Cc2ccccc2O1)N1CCCCC1 (stereo not drawn)	2.49
CC(Sc1nnc(C(C)Oc2ccccc2F)o1)C(=O)NCc1ccc2c(c1)OCO2 (stereo not drawn)	2.55
Cc1cc(=O)[nH]c(SCC(=O)Nc2nc3c(s2)CCCC3)n1	7.85
O=C(O)CN1C(=O)/C(=C\c2cccc(OCc3ccccc3)c2)SC1=S	7.44
O=C(NNC(=S)NCC1CCCO1)c1cccc(S(=O)(=O)N2CCOCC2)c1 (stereo not drawn)	-2.64
Cc1ccc(S(=O)(=O)NC(=O)Nc2ccc(C)cc2C)cc1	10
Cc1ccccc1N1C(=O)N(c2cccc(C(F)(F)F)c2)C2CS(=O)(=O)CC21 (stereo not drawn)	11.3
O=S(=O)(/C=C/c1ccccc1)N1CCN(c2cccc(Cl)c2)CC1	5.1
Cl.O=C(CCN1CCc2ccccc2CC1)c1ccc2c(c1)OCCO2	-32.3

Structure (SMILES)	hERG current change (%, negative = inhibition) at 1uM [%]
O=C(CN(C(=O)c1csnn1)c1ccccc1F)NC1CCCCC1	-2.12
O/N=C/CCn1c(=S)sc2ccccc21	7.42
COc1ccc(S(=O)(=O)N2CCC(C(N)=O)(N3CCCCC3)CC2)cc1OC	10.3
COc1ccc(C2CC(=O)C=C(NCC3CCCO3)C2)cc1 (stereo not drawn)	5.3
COCCCNC(=S)N/N=C/c1ccccc1O	12.7
CCOC(=O)c1nc(C)nc(Sc2n[nH]c(-c3cc(C(F)(F)F)cc(C(F)(F)F)c3)n2)c1C	8.67
O=C(NCCOC(=O)c1c(F)cccc1Cl)c1c(F)cccc1Cl	13.1
CC1(C(=O)N2CC3(CC(c4cccc(NC(=O)CC(c5ccccc5)c5ccccc5)c4)=NO3)C[C@@H]2C(N)=O)CC1 (stereo partly drawn)	15.2
COc1ccc(OC)c(C2=NOC(C(=O)N3CCCc4ccccc43)C2)c1 (stereo not drawn)	7.77
O=C(COc1ccc(Br)cc1)Nc1ccc(CN2CCOCC2)cc1	-7.52
Cc1ccc(NC(=O)C(C)N=C2NS(=O)(=O)c3ccccc32)cc1 (stereo not drawn)	9.15
CC1CCCCN1C(=O)CSc1nc(-c2ccccc2)cc(=O)[nH]1 (stereo not drawn)	7.24
Cc1ccc(N(Cc2ccccc2)C(=O)c2ccc(F)cc2)cc1	2.45
CCn1c(SCC(=O)N(C)C2CCS(=O)(=O)C2)nnc1-c1cccs1 (stereo not drawn)	9.92
COCCCNC(=O)c1ccc2c(c1)OCO2	-2.46
CCOc1ncccc1C(=O)OCC(=O)NC(=O)NC(C)C	16.9
COc1ccc(-n2ncc3c2CC(C)(C)CC3NC(=O)CCCN2CCCC2=O)cc1 (stereo not drawn)	8.36
Cc1ccc(O)c(-c2cc(C(F)(F)C(F)F)[nH]n2)c1	6.77
CC1CCN(c2ccc(NC(=S)NC(=O)c3ccc(-c4cccc([N+](=O)[O-])c4)o3)cc2)CC1	3.52
CN(C)c1ccc(N=Nc2ccccc2C(=O)OCC(=O)N2CCCC2)cc1	18
CCO/C=C/C(=O)N(C)CCC#N	0.767
CCC(C)(C(=O)NC1CCCCC1)N(Cc1cccs1)C(=O)c1ccc(=O)[nH]c1 (stereo not drawn)	4.66
O=C(/C=C/NNC(=O)c1cccc(Br)c1)c1ccccc1	13.7

Structure (SMILES)	hERG current change (%, negative = inhibition) at 1uM [%]
COc1ccc(Nc2nnc(-c3ccc(C(N)=O)cc3)c3ccccc23)cc1	14.1
CCC(C)c1ccc(C(C)NC(=S)NC2CCCCC2)cc1 (stereo not drawn)	11.3
Cc1onc(-c2ccccc2)c1C(=O)Nc1nnc(COc2ccc(Cl)cc2)s1	15.7
Cc1cccc2cc3c(NC(=O)C(C)(C)C)nn(CC(C)C)c3nc12	21.5
CCC(=O)c1ccccc1OCCCN1C(=O)NC(C)(C)C1=O	1.4
COc1cc(C(=O)c2ccccc2)c([N+](=O)[O-])cc1OC	11.6
O=C(CSc1cccc(C(F)(F)F)c1)Nc1cc(S(=O)(=O)N2CCCC2)ccc1Cl	4.42
CCOC(=O)c1[nH]c2ccc(C)cc2c1NC(=O)CN1CCCCC1	1.71
CCN(CC)c1ccc(N)cc1	12.8
CCOC(=O)C1CCN(C(=O)c2ccc(N(C)S(C)(=O)=O)cc2)CC1	0.943
NC(=O)C1(N2CCCCC2)CCN(C(=O)CSc2nc3ccccc3o2)CC1	2.97
Cn1c(Cn2c(=O)sc3ccccc32)nnc1SCc1cccnc1	-5.97
O=C(Cc1ccc(O)cc1)NC1CCCCCC1	15.4
COc1ccc(N(CC(=O)NCCSc2ccccn2)S(C)(=O)=O)cc1	6.95
COc1ccc(N2C(=O)CC(NC34CC5CC(CC(C5)C3)C4)C2=O)c(OC)c1 (stereo not drawn)	8.85
COc1ccccc1CC(=O)NCCc1ccc(S(N)(=O)=O)cc1	10.5
N#CNC(N)=Nc1cccc(Cl)c1	16.4
NC(N)=N/N=C/c1cccc([N+](=O)[O-])c1O	22.1
Cc1sc2ncnc(N3CCN(S(=O)(=O)c4ccc(F)cc4)CC3)c2c1C	-2.36
c1ccc2nc(-c3nc4ccccc4o3)ccc2c1	7.46
Cc1sc(NC(=O)/C=C/c2ccco2)c(C(=O)OC(C)C)c1C	3.03
COc1ccc2c(c1)c1nc(SCC(C)C)n(CCO)c(=O)c1n2C	9.29
CS(=O)(=O)N(Cc1ccc(Cl)cc1)c1ccc(C(=O)NCCSCc2ccco2)cc1	3.78

Structure (SMILES)	hERG current change (%, negative = inhibition) at 1uM [%]
CSc1ncccc1C(=O)OCC(=O)N(C)c1c(N)n(Cc2ccccc2)c(=O)[nH]c1=O	-16.3
CCN1CCN(C(=O)CCc2nnc(CCc3c[nH]c4ccccc34)o2)[C@@H](C)C1=O	-0.692
O=C(c1ccco1)n1nc(-c2ccc(Cl)cc2)nc1NCc1ccco1	11.8
O=C1c2cccc3cc(Br)cc(c23)C(=O)N1Nc1ccc(Br)cc1	11.9
O=C(Nc1cccc2cccnc12)c1ccc(Br)cc1Br	17.3
CC/C(=N\N1CCCCC1)c1c(O)[nH]c(=O)[nH]c1=O	12.7
FC(F)(F)c1ccc(N2CCOCC2)c(Nc2nc3ccccc3n3cnnc23)c1	8.14
Cc1nn(Cc2ccc(F)cc2)c(C)c1NC(=O)c1cc2ncc(Br)cn2n1	10
O=C(Nc1c(Cl)cccc1Cl)C1CCN(C(=O)c2cccs2)CC1	10.4
CCc1cccc(CC)c1NC(=O)CCCSc1nc2ccccc2s1	12.6
COc1cccc(NC(=O)CN(C)CC(=O)NC(C)c2ccccc2)c1 (stereo not drawn)	1.71
CC(=O)c1ccc(S(=O)(=O)N2CCC(NC(=O)Nc3cccc(F)c3)CC2)cc1	10.7
CCNC(=O)C12CCC(C)(C(=O)O1)C2(C)C (stereo not drawn)	12.2
C/C(=N\NC(=O)CNC(=O)c1cccs1)c1ccc(Cl)c(Cl)c1	13.8
CCC(C)SCc1nc2ccccc2[nH]1 (stereo not drawn)	2.06
Cc1ccc(NC(=O)CSC2=NN3CCCC(=O)N=C3S2)cc1Cl	0.817
CCOC(=O)C1(Cc2ccc(Cl)cc2)CCN(CCCn2cccn2)CC1	-77
O=C(CSc1nc(-c2ccccc2)cc(=O)[nH]1)Nc1ccccc1F	16.8
COc1ccc(CCNC(=O)c2nnn(-c3cccc(C)c3)c2N)cc1OC	-12.2
COc1ccc(-c2noc(N3CCC(C(=O)Nc4ccc(OC)c(OC)c4)CC3)n2)cc1	1.78
COc1ccc(CN(C)C(=O)c2ccc3ccccc3n2)cc1F	8.73

From article PMC4336329 (PLoS ONE, 2015)
